Molecules are shown by their SMILES. About 14,000 (4.5%) of roughly 310,000 compounds showed an effect of 50% or more. The effect is printed as a negative number. The list shows a part of the results.
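Note: peak tail current of the secondary pulse compared with the same well before compound.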

Sequence of human ether-à-go-go-related gene (hERG) potassium channel (Q12809 whole entry, looked up): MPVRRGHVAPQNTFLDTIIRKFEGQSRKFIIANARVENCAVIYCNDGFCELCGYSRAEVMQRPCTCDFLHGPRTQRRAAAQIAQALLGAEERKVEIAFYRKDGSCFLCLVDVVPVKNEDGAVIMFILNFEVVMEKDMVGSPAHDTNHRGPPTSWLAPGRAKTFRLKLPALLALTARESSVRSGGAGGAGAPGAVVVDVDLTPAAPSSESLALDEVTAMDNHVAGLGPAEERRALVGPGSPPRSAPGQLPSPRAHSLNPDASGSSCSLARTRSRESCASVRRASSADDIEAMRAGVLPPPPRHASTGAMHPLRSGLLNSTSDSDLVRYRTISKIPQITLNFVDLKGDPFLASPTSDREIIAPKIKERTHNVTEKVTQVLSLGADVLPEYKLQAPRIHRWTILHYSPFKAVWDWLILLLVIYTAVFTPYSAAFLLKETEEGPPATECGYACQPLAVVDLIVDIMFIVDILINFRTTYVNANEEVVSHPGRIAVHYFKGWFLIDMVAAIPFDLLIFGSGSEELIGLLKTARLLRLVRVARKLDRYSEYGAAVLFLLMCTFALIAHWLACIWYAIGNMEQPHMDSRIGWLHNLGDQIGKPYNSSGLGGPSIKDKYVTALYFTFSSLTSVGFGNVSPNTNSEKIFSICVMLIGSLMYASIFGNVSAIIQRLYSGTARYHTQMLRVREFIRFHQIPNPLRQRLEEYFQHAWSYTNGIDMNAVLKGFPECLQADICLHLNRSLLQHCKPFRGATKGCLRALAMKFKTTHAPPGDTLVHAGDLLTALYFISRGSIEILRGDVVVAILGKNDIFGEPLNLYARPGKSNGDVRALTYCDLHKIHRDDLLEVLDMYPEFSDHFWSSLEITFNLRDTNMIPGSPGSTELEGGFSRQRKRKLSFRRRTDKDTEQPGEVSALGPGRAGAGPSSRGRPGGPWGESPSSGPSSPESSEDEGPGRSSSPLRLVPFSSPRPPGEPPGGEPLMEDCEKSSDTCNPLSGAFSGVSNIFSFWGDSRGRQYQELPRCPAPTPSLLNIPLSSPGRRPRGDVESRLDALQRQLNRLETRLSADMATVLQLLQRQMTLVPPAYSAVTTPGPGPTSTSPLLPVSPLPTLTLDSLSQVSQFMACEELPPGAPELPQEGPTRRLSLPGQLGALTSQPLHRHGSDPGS

This experiment has as its target human ether-à-go-go-related gene (hERG) potassium channel (human, UniProt Q12809). In words: primary screen, population patch clamp on CHO cells stably expressing hERG.
Regarding `Cc1c(Cl)cccc1NC(=O)NN1CCN(C)CC1`, the “hERG current change (%, negative = inhibition) at 10uM” value is given as -0.937%.
Turning to `Cc1ccc(Nc2nc3ccccc3o2)cc1F`, the “hERG current change (%, negative = inhibition) at 10uM” value stood at 21%.
With `CC1=C(C(=O)OCC2CCCO2)C(c2ccc(C)cc2)C2=C(CCCC2=O)N1` (stereo not shown), the “hERG current change (%, negative = inhibition) at 10uM” value was 14.4%.
For `Cc1ccc(C)c(NC(=O)CSc2nc(=O)n(CCN3CCOCC3)c3c2CCCC3)c1`, the “hERG current change (%, negative = inhibition) at 10uM” value was -24.2%.
As for `COc1ccc(NC(=O)C(=S)N2CCCC2)cc1`, the figure is 11.1%; as for `CCCn1nnnc1NC(=O)c1cccs1`, 25.5%.
As for `COc1ccccc1N1CCN(C(=O)c2cc(=O)c3cc(C)ccc3o2)CC1`, the figure is -50.7%; as for `c1cncc(C2CCCCN2Cc2ccc3c(c2)OCO3)c1` (stereo not shown), 0.758%.
As for `Cc1cc(C)cc(-n2cnc3cc(C(=O)O)ccc32)c1`, the figure is 2.82%; as for `OC(CN1CCOCC1)c1ccc(F)cc1` (stereo not shown), 12.6%; as for `O=C(NCC(c1ccco1)N1CCCC1)c1cccc(NS(=O)(=O)c2ccccc2)c1` (stereo not shown), -5.9%.
Consider `Cc1csc(-c2cnn(-c3ccccc3)c2NC(=O)c2ccccc2)n1`, for which the “hERG current change (%, negative = inhibition) at 10uM” value amounted to 10.3%.
As for `Oc1ccc(-c2nc3ccccc3s2)cc1`, the figure is 1.14%.
As for `O=C(NC1CCCC1)c1cccc(Cl)c1`, the figure is 29.8%.
As for `O=[N+]([O-])c1ccc(OCCCn2cncn2)cc1`, the figure is -22.6%; as for `O=S(=O)(Cc1ccc(Cl)cc1)c1ccccc1-c1nnc(-c2ccccc2)o1`, 11.2%; as for `CCN1CCc2c(sc(NC(=O)COc3ccccc3)c2C(=O)OC)C1.Cl`, -62.6%.
On to `COc1cccc(/C(C#N)=C/c2c(-c3ccc(Cl)cc3)nc3c(C)cccn23)c1`, for which the “hERG current change (%, negative = inhibition) at 10uM” value is listed as 10.1%.
Next, `COC(=O)C1=C(C)NC(C)=C(C(=O)OC)C1C(=O)OCC(=O)N1c2ccccc2CC1C` (stereo not shown): -0.858%; `CCCc1cc(C(=O)Nc2cccnc2)no1`: 5.01%.
As for `O=C(O)C1CCC(CNCc2ccccc2Cl)CC1` (stereo not shown), the figure is -3.19%; as for `COc1ccc(NC(=O)Cn2nnc(-c3ccccc3NC(=O)C3CC3)n2)cc1`, 3.42%.
Regarding `C/C(=N\NC(=O)c1c[nH]c2ccccc12)c1ccc(C)s1`, the “hERG current change (%, negative = inhibition) at 10uM” value is recorded as -7.68%.
Next, `Cc1cccc(-n2nnc(C(=O)NCc3ccccc3Cl)c2N)c1`: 10.1%; `Cc1ccc(CC(=O)NC(C)CCc2ccccc2)cc1` (stereo not shown): 2.65%; `CSc1ncccc1C(=O)NNC(=O)c1ccc(NS(=O)(=O)c2cccs2)cc1`: 9.7%.
As for `O=C(NC1CC1)c1cccc(NC(=O)c2cn3ccccc3n2)c1`, the figure is -18.6%.
As for `CCc1ccc(CCC(=O)Nc2ccc(Cl)cc2)o1`, the figure is 9.4%.
As for `O=C(Cc1cccs1)NNC(=O)C12CC3CC(CC(C3)C1)C2`, the “hERG current change (%, negative = inhibition) at 10uM” value is listed as 22.5%.
As for `CSc1cccc(NC(=O)C(=O)NCc2ccccc2)c1`, the figure is -28.8%; as for `O=C(CNCc1ccc(Cl)cc1)NCc1ccco1.O=C(O)C(=O)O`, -17.3%.
As for `COc1ccc(NCC(=O)N/N=C(\C)c2cc3ccccc3o2)cc1`, the figure is -28.7%; as for `CC1=NC(=O)C(N=Nc2ccccc2)N1c1ccccc1` (stereo not shown), -8.37%.
Next, `CCOC(=O)N1CCN(C(=O)CN(c2ccccc2)S(C)(=O)=O)CC1`: 22.2%; `CCOC(=O)C1(CC2CCCCO2)CCN(C(=O)Nc2cccc(SC)c2)CC1` (stereo not shown): -9.02%.
As to `Cc1ccc(N2C(=O)C3C(C2=O)N2CCCN2C3c2ccccc2)cc1C` (stereo not shown), the “hERG current change (%, negative = inhibition) at 10uM” value is reported as 4.15%.
As for `CCOC(=O)c1nn(-c2ccccc2C)c2nc(-c3ccc(Cl)cc3)c(C#N)c(=O)n12`, the figure is 12%.
On to `CC1(C)CC(=O)C2=C(C1)OC(N)=C(C#N)C2c1ccccc1` (stereo not shown), for which the “hERG current change (%, negative = inhibition) at 10uM” value is listed as -14.4%.
As for `O=C(CSc1ncn[nH]1)Nc1ccccc1Sc1ccc(Cl)cc1`, the figure is -28.2%; as for `O=c1c2ccc([N+](=O)[O-])cc2ncn1CCOc1ccccc1`, -8.16%; as for `COc1ccc(OCC(=O)Nc2nc3ccccc3[nH]2)cc1`, 1.01%.
As for `CC(=Nc1ccc2c(c1)CCC2)c1c(O)n(C2CCCCC2)c(=O)[nH]c1=O`, the figure is 8.58%; as for `O=C1NC(=O)N(CCc2ccc(F)cc2)C(=O)/C1=C/C=C/c1ccccc1`, -0.806%.
Next, `COc1ccc(CNC(=O)c2ccc(N3CCC4(CC3)CC(c3ccc(Cl)cc3)=NO4)c(NC(=O)c3ccccc3)c2)cc1`: 8.81%; `N/C(=N\O)c1ccc([N+](=O)[O-])s1`: 11%.
Turning to `COc1ccc(NC(=O)c2cccs2)cc1OC`, the “hERG current change (%, negative = inhibition) at 10uM” value was -9.25%.
Next, `Clc1ccc(Sc2oc(/C=N/n3cnnc3)cc2Br)cc1`: 10.5%.
As for `O=[N+]([O-])c1cccc(CSc2cccc[n+]2[O-])c1`, the figure is 12.4%; as for `CC1Cc2ccccc2N1S(=O)(=O)c1cccc(C(=O)NC2CC2)c1` (stereo not shown), -40%; as for `O=C(Nc1ccccc1)N(C1=NCCCCS1)c1ccccc1`, 8.39%.
Regarding `Cc1ccc(NC(=O)N/C=C/c2ccco2)cc1`, the “hERG current change (%, negative = inhibition) at 10uM” value is reported as -2.2%.
With `COc1ccc(S(=O)(=O)N(C)CC(=O)NCCC2=CCCCC2)cc1OC`, the “hERG current change (%, negative = inhibition) at 10uM” value was -17.1%.
As for `COc1ccc(CCNC(=O)c2nc(-c3cccs3)no2)cc1OC`, the figure is -12.6%; as for `O=C(NC1CCS(=O)(=O)C1)c1ccc(Br)o1` (stereo not shown), 14.4%.
With `CC(=O)N1CCN(c2ccc([N+](=O)[O-])cc2C=C2C(=O)NC(=O)NC2=O)CC1`, the “hERG current change (%, negative = inhibition) at 10uM” value is -56.6%.
Next, `O=C(CSc1nnc(-c2ccc3c(c2)OCO3)n1-c1ccccc1)c1ccccc1`: -6.49%.
Next, `CCOC(=O)C1C(c2cccc(Cl)c2Cl)NC(=O)NC1(O)C(F)(F)F` (stereo not shown): 4.8%; `O=C1C=C(c2ccc(-c3ccccc3)cc2)C[C@@H](c2ccc(F)cc2)C1`: 6.67%; `Cc1ccc(NCc2nnc(SCC(=O)N3CCCc4ccccc43)o2)c(C)c1`: 12.7%.
As for `COc1ccc(C(=O)COC(=O)COc2cccc3c2OC(C)(C)C3)c(OC)c1`, the figure is 13.5%; as for `O=C(Nc1ccccn1)c1ccc(CN(c2ccccc2)S(=O)(=O)c2ccccc2)cc1`, 9.86%.
With `O=C1CSC(=S)N1/N=C/c1c(F)cccc1F`, the “hERG current change (%, negative = inhibition) at 10uM” value worked out at 25.3%.
Consider `Cc1cc(C)nc(NC(=O)CSc2nc3ccccc3o2)n1`, for which the “hERG current change (%, negative = inhibition) at 10uM” value is reported as -14.4%.
In the case of `CCOC(=O)c1ccccc1NC(=O)C1CC(=O)N(C2CCCCC2)C1` (stereo not shown), the “hERG current change (%, negative = inhibition) at 10uM” value was -22.7%.
Turning to `CCC(C)NC(=O)CCc1c(C)nc2c(c(C)nn2-c2ccccc2)c1C` (stereo not shown), the “hERG current change (%, negative = inhibition) at 10uM” value was -1.82%.
As for `CCC(=O)c1ccc(OCC(=O)OCC(=O)NC2CCCCCC2)cc1`, the figure is 18.6%; as for `CCOC(=O)CN1NC2(CCC(C(C)(C)C)CC2)NC1=S` (stereo not shown), 14.7%; as for `COc1ccc2cc(S(=O)(=O)N3CCOCC3)ccc2c1`, -19.6%.
Next, `COc1cc(NC(=S)NC(=O)c2cc(C)cc(C)c2)ccc1NC(=O)c1cccs1`: 22.5%; `CCCC12CN3CCN(CC(C3)/C1=N\NC(=O)c1ccc(C(C)(C)C)cc1)C2`: -14.4%.
As for `O=C(NCc1cccs1)c1cccc(Nc2nc3ccc(Br)cc3[nH]2)c1`, the figure is 11.2%; as for `O=C(O)c1ccccc1SCc1csc(-c2ccccc2)n1`, 5.76%; as for `O=C(N/N=C/c1ccccc1F)C(=O)N1CCCCCC1`, 4.7%.
For `O=C1c2ccccc2C(=O)N1CCc1csc(-c2ccccc2)n1`, the “hERG current change (%, negative = inhibition) at 10uM” value is recorded as -23.7%.
For `O=c1[nH]cnc2c1C(c1ccccc1[N+](=O)[O-])c1c(nc[nH]c1=O)O2`, the “hERG current change (%, negative = inhibition) at 10uM” value turned out to be 6.83%.
Next, `Cc1cc(C)n2c(SCC(=O)Nc3ccccc3)nnc2n1`: -9.2%.
Next, `O=C(COC(=O)c1ccc(Sc2ccccc2)c([N+](=O)[O-])c1)NC1CCCc2ccccc21` (stereo not shown): 2.44%; `N/C(=N\OC(=O)COc1ccc2ccccc2c1Br)c1ccccn1`: 3.81%; `Cc1ccccc1/C=C1\CCCc2ccccc2C1=O`: -0.224%.
As for `Cn1c(=O)cc(OCCCC(=O)NCCN2CCN(c3ccccc3F)CC2)c2ccccc21`, the figure is -7.18%; as for `CCCCn1c(O)c(C(C)=NCCCn2ccnc2)c(=O)[nH]c1=O`, -37%; as for `O=S(=O)(Nc1cccc(-c2cn3cccnc3n2)c1)c1ccc(F)cc1`, -21.2%.
As to `CCc1ccc(NC(=O)c2cnc(N3CCN(c4ccccn4)CC3)c3ccccc23)cc1`, the “hERG current change (%, negative = inhibition) at 10uM” value was 1.85%.
Take `CN(C)Cc1c(O)ccc2c(=O)c(-c3ccccc3Cl)c(C(F)(F)F)oc12`: the “hERG current change (%, negative = inhibition) at 10uM” value turned out to be 7.08%.
As to `Cn1c(SCC(=O)Nc2ccc(Br)cc2)nc(O)cc1=O`, the “hERG current change (%, negative = inhibition) at 10uM” value came to 13.3%.
Regarding `COc1ccccc1CNC(=O)C1CCC(CNc2c(N3CCOCC3)c(=O)c2=O)CC1` (stereo not shown), the “hERG current change (%, negative = inhibition) at 10uM” value was determined as 20.1%.
As to `Cc1ccccc1CC(=O)NCC1CCCCC1`, the “hERG current change (%, negative = inhibition) at 10uM” value was found to be 1.34%.
Next, `COc1ccc(NC(=O)COC(=O)Cc2cccs2)cc1OC`: -27.4%; `O=S1(=O)CCN2C(c3cccc4ccccc34)=CSC2=N1`: 9.4%.
Next, `N#Cc1ccc2c(c1)nc1ccccn12`: 10.9%.
As for `CCCC(C)C(=O)Nc1ccc(S(=O)(=O)Nc2nccc(C)n2)cc1` (stereo not shown), the figure is 21.5%.

The values above are taken from PMC4336329 (PLoS ONE, 2015).
